Source: publication PMC4336329 (PLoS ONE, 2015)
About 14,000 (4.5%) of roughly 310,000 compounds showed an effect of 50% or more. Effects have a minus sign here. Some of the results follow.

Molecular target: human ether-à-go-go-related gene (hERG) potassium channel (human, UniProt Q12809)
Assay: primary screen, population patch clamp on CHO cells stably expressing hERG
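Further: peak tail current of the secondary pulse compared with the same well before compound.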

Sequence of human ether-à-go-go-related gene (hERG) potassium channel (Q12809 whole entry, looked up): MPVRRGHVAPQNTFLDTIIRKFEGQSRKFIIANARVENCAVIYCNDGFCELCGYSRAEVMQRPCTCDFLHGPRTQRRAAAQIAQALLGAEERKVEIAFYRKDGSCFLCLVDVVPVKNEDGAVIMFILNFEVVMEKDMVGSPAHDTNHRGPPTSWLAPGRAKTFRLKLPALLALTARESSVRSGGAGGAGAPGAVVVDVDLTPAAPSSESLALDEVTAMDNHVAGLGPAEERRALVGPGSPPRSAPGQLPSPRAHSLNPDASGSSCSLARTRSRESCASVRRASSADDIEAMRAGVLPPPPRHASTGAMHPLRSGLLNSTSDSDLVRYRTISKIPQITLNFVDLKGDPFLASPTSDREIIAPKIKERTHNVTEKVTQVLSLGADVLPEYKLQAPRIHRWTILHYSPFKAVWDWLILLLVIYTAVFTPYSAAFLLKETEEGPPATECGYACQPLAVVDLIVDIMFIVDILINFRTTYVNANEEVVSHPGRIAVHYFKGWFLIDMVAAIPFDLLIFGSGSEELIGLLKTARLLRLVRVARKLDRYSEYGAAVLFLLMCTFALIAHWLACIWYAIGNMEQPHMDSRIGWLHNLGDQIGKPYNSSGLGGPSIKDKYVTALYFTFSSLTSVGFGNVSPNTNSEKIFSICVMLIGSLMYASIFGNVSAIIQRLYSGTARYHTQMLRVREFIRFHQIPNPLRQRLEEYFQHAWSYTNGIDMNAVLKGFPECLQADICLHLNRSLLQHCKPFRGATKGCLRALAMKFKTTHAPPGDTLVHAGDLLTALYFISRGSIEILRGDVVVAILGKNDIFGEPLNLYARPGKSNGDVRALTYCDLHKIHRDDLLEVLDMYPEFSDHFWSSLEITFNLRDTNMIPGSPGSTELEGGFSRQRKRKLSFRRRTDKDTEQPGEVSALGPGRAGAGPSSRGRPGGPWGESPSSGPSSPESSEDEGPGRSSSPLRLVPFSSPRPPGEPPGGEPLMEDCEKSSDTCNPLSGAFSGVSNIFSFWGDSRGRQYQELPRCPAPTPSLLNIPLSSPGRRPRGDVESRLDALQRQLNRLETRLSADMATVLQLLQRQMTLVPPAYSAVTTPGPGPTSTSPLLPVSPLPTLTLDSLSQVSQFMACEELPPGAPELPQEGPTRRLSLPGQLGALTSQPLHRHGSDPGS

Row | SMILES | hERG current change (%, negative = inhibition) at 10uM [%]
1 | CCCn1c(NC(=O)C23CC4CC(CC(O)(C4)C2)C3)nc2ccccc21 | -5
2 | Cc1cc(NC(=O)c2cccc(S(=O)(=O)N(C)C)c2)n(-c2ccccn2)n1 | 2.07
3 | COC(=O)C1=C(C(=O)c2ccccc2)C(c2cccs2)n2nnnc2N1 (centres unmarked) | 19.8
4 | COc1cc(NC(=O)C(C)C)ccc1NC(=O)c1cc2ccccc2o1 | 16.6
5 | COc1cc(/C=C/C(=O)O)ccc1OS(=O)(=O)c1c(C)c(C)cc(C)c1C | -27.1
6 | Fc1ccccc1Nc1nc2ccccc2o1 | -17.2
7 | Cc1c(NC(=O)C(C)OC(=O)c2cc(Cl)nc(Cl)c2)c(=O)n(-c2ccccc2)n1C (centres unmarked) | -13.6
8 | CC1CN(C(=O)CCC(=O)NC2CCN(Cc3ccccc3)CC2)c2ccccc2O1 (centres unmarked) | -26.7
9 | CCN1/C(=C/c2ccc3ccccc3[n+]2CC)C=Cc2ccccc21.[Cl-] | -82.5
10 | CCOCCCN1CN(Cc2ccccc2)CNC1=S | 14.3
11 | Cc1ccc(NC(=O)C2c3ccccc3Oc3ccccc32)c(C)c1 | -1.88
12 | Cc1cc(Cl)ccc1OCC(=O)NCc1ccncc1 | -8.3
13 | COC(=O)c1cc2c(=O)c3ccccc3oc2nc1/C=C/N(C)C | 4.31
14 | Cc1cc(NC(=O)COC(=O)c2c(C)noc2C)ccc1Br | 7.1
15 | CCOC(=O)c1c[nH][nH]c1=O | 11.5
16 | O=C(O)c1cccc(N2C(=O)c3ccc(C(=O)c4cccc([N+](=O)[O-])c4)cc3C2=O)c1 | 3.11
17 | c1ccc(C2=Nc3ccccc3NC(c3ccccc3)C2)cc1 (centres unmarked) | -3.88
18 | CCCc1nc2oc(C(=O)OCC)c(N)c2c2c1COC(C)(C)C2 | -18.2
19 | CCOc1ncccc1C(=O)NCc1ccc(OC)c(OC)c1 | 6.89
20 | COc1ccc(CCNC(=O)c2nnc(Cc3ccc(Cl)cc3)o2)cc1OC | 0.114
21 | CC(C)(C)c1ccc(-c2cc(C(=O)NNC(=O)Nc3ccccc3)c3ccccc3n2)cc1 | 13.6
22 | Cc1ccc(S(=O)(=O)Nc2cccc(C(=O)NCCCn3ccnc3)c2)cc1F | -6.45
23 | O=C(Oc1ccc(-c2cnc3ccccc3n2)cc1)c1cccc([N+](=O)[O-])c1 | -2

Row | SMILES | hERG current change (%, negative = inhibition) at 10uM [%]
24 | C=CCOc1ccc(Br)cc1/C=C1\NC(=S)N(C(C)=O)C1=O | 26
25 | Cc1cc(C)c(S(=O)(=O)N2CCCC(C(=O)NCc3cccnc3)C2)c(C)c1 (centres unmarked) | -27
26 | COc1c(F)c(F)c(-c2csc(N)n2)c(F)c1F | 11
27 | CCCCn1c(N)c(N(CCOC)C(=O)COC(=O)COc2c(C)cc(C)cc2C)c(=O)[nH]c1=O | 7.2
28 | Oc1ccccc1-c1nc(NCc2ccccc2)c2ccccc2n1 | 12.7
29 | FC(F)(F)c1cccc(N2CCN(CC3CC4C=CC3C4)CC2)c1 (centres unmarked) | -10.6
30 | Cl.O=c1oc2ccccc2cc1C1=Nn2c(nnc2-c2cccnc2)SC1 | -35.6
31 | CC(C)C(NC(=O)c1cccs1)C(=O)NC1CCCCC1 (centres unmarked) | 11.7
32 | CC(=O)c1ccc(S(=O)(=O)Nc2ccc(-c3ccc4nnc(C)n4n3)cc2)cc1 | 22.9
33 | O=C(Nc1ncccn1)c1ccc([N+](=O)[O-])cc1Cl | -4.18
34 | O=C(NCc1ccccc1F)c1cc(=O)[nH]c2ccccc12 | 19.1
35 | CCN(CC)C(=O)c1ccccc1NC(=O)c1ccccc1SC | -39.6
36 | CCCn1c(N)c(C(=O)CSc2nnc(C)n2Cc2ccccc2)c(=O)n(C)c1=O | -4.68
37 | O=C(COc1ccccc1[N+](=O)[O-])Nc1cccc(C(=O)Nc2ccccc2C(=O)O)c1 | 19.8
38 | Cc1cc(-c2nnc(CCC(=O)N(CC3CCC3)CC3CCCO3)o2)no1 (centres unmarked) | 2.6
39 | COC(=O)Cc1ccc(NC(=S)N2CCCC(C)C2)cc1 (centres unmarked) | 12.7
40 | C=CCn1c(SC(C)C(N)=O)nc2sc(CC)cc2c1=O (centres unmarked) | -35.5
41 | COc1cc2ccccc2cc1C(=O)N(CCN(C)C)c1nc2ccc(Br)cc2s1.Cl | 9.85
42 | C=CCN(Cc1nc(-c2ccccc2)no1)C(=O)c1ccco1 | -5.47
43 | Cn1cccc1/C=N/NC(=O)c1ccccn1 | 3.61
44 | COc1cc(/C=N/NC(=S)NCc2ccccc2)ccc1OCC#N | -11.2
45 | CCN(CC)C(=O)Oc1ccc2ccccc2c1Cl | -1.1
46 | CC(NC(=O)/C=C/c1ccc(Br)cc1)c1ccccc1 (centres unmarked) | 13

Row | SMILES | hERG current change (%, negative = inhibition) at 10uM [%]
47 | O=C(Nc1ccccn1)NC1CCS(=O)(=O)C1 (centres unmarked) | -3.01
48 | CCN(CC)S(=O)(=O)c1ccc(N2CCCC2)c(C(=O)OCC(=O)/C(C#N)=C(\C)N)c1 | -5
49 | CNC(=O)COC(=O)/C=C/c1cccc(F)c1 | 14.1
50 | CC1CCC(NC(=O)N(CCCl)N=O)CC1 (centres unmarked) | 8.27
51 | COc1ccc(OCc2cc(C(=O)NCC3(C)COC3)no2)c(Cl)c1 | -12.3
52 | COC(=O)c1sc(SC)nc1N | 16.6
53 | O=C(CCC(=O)c1ccc(Br)cc1)Nc1cccnc1 | -8.76
54 | C=CCn1c(=O)c2c3c(sc2n2c(Nc4ccccc4)nnc12)CCCC3 | 11.9
55 | CCN1CCCc2cc(CN(CCN3CCOCC3)C(=S)Nc3cccc(OC)c3)ccc21 | 12.3
56 | O=C1c2cc(Cl)ccc2OC2(CCNCC2)C12CC(c1ccccc1)=NO2 (centres unmarked) | -5.69
57 | CCOc1ccccc1CNC(=O)C(C)n1nc(C)c2c(C)n(-c3ccccc3)nc2c1=O (centres unmarked) | -65.4
58 | Cn1c(SCC(=O)Nc2cccc(S(=O)(=O)NC3=NCCCCC3)c2)nnc1-c1ccccc1 | 7.43
59 | COc1ccc(N2CCN(C(=O)CNC(=O)Cc3ccccc3)CC2)cc1 | -13.3
60 | Cc1onc(-c2ccccc2Cl)c1C(=O)Nc1ccc(Br)cc1 | 14.7
61 | CN(C)c1ccc(/C=C2\C(=N)N3N=C(CC(=O)N4CCCCC4)SC3=NC2=O)cc1 | -11.7
62 | CC(=O)NC1=NN(C(C)=O)C(C)(c2cccc([N+](=O)[O-])c2)S1 (centres unmarked) | 1.4
63 | CC(NC(=O)Nc1nccs1)(C(F)(F)F)C(F)(F)F | 4.52
64 | CCCc1cc(Nc2ccc(C)cc2)n2ncnc2n1 | -4.78
65 | CC1=C(C(=O)OCCOc2ccccc2)C(c2coc3ccccc3c2=O)C2=C(CCCC2=O)N1 (centres unmarked) | 1.53
66 | COc1ccc(CNC(=O)Nc2cc(C)ccc2C)cc1 | 9.53
67 | CCCCCOCC1CC(C/C(C)=N/NC(N)=S)C(=O)O1 (centres unmarked) | -27.3
68 | CC(C)c1onc(C(=O)NC2CCCC2)c1[N+](=O)[O-] | 11.6
69 | COc1ccc(NC2CCCN(C(=O)c3c(C)noc3C)C2)cc1 (centres unmarked) | 13.3

Row | SMILES | hERG current change (%, negative = inhibition) at 10uM [%]
70 | Brc1ccc2ncnc(NCc3cccnc3)c2c1 | -60.2
71 | O=C(CC(C(=O)O)c1ccc(F)cc1)c1ccc(Cl)cc1 (centres unmarked) | 15.1
72 | COC(=O)C1=C(C(=O)OC)[C@@H]2N(C)c3ccccc3[C@@]23C[C@@H](C(=O)OC)N(C(=O)CC(C)C)C3=N1 | 2.32
73 | COc1ccc(C(=O)NCCSc2ccccn2)cc1 | -3.33
74 | CC(=O)Oc1ccc(C(=O)Nc2cc(NC(=O)c3ccc(OC(C)=O)cc3)cc(C(=O)NC(C)(C)C)c2)cc1 | 4.6
75 | Cc1ccc(N(CC(=O)NCc2ccc3c(c2)OCO3)C(=O)c2csnn2)cc1 | -14.2
76 | CCCCNc1nc(-c2ccccc2)c(C(=O)OCC)cc1C#N | -7.25
77 | Cc1cc(C)nc([N-]S(=O)(=O)c2ccc(N)cc2)n1.[Na+] | -14.9
78 | Cc1c(C(=O)C(=O)NCCCn2ccnc2)c2ccccc2n1C | -14.4
79 | COC(=O)C1=C(N)Oc2cc(C)[nH]c(=O)c2C1c1cc(OC)c(OC)c(OC)c1 (centres unmarked) | -1.15
80 | CCn1c(SCC(=O)NC2CC2)nnc1-c1cccs1 | -5.39
81 | CCc1cc2ccc(OC)cc2nc1SCC(=O)NNC(=O)c1ccco1 | 9.26
82 | CCCC(=O)Nc1ccc(Br)c(Cl)c1 | 8.65
83 | O=C(O)CCn1cc(/C=C\C(=O)c2ccc(Cl)cc2)c(-c2cccc(Br)c2)n1 | 5.23
84 | Clc1ccccc1-c1nnc2n1-c1ccccc1SC2 | -3.67
85 | CCOC(=O)c1cc2c(=O)n3ccccc3nc2n(C(C)C)c1=NC(=O)c1ccco1 | -56.8
86 | COc1cccc(N=Nc2c(=O)[nH]n3c(=O)cc(C)[nH]c23)c1 | 26.9
87 | COc1ccc(N2CC(C(=O)Nc3nnc(SCC(=O)N4CCCC4)s3)CC2=O)cc1 (centres unmarked) | 19.9
88 | O=C(CCSCCc1ccccn1)Nc1cc(F)ccc1F | -1.64
89 | Cc1cccc(N2CCN(CC(O)COc3ccc(Cl)cc3)CC2)c1 (centres unmarked) | -41.3
